{
  "source": "PubChem BioAssay AID651820",
  "about": "(National Center for Advancing Translational Sciences (NCATS), 2012)",
  "note": "The campaign covered roughly 340,000 compounds. About 12,000 (3.5%) were called active. Inconclusive means that the source gave no clear call. Such entries were picked first, then a sample of the others. The call rests on the fitted dose curve; in most records, active means well fitted inhibition curve with a large enough effect; inconclusive means small, poorly fitted or top-dose-only effect, or another doubt; inactive means no such curve, though single readings can be large or run the other way. No potency is given beside an inconclusive call; the fits are too rough. Potency means the concentration at half of the fitted maximal effect; tags describe the fitted curve by direction and shape.",
  "data": [
    {"experiment": "qHTS Assay for Inhibitors of Hepatitis C Virus (HCV)", "settings": "Huh7.5.1 HCVcc-Cre (HCVcc is cell-culture hepatitis C virus) infection, luciferase reporter, 44 h; series mostly up to 41.8 µM", "how_it_was_run": "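Reporter virus HCVcc-Cre (~0.5 moi) infects cells exposed to compound; seeding density 1,000 cells/well with 4 h settling beforehand. Luminescence, 15 sec read, taken 44 h post-infection following a 15 min RT substrate incubation.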", "values": [
      {"compound": "CCOc1ccc(-n2c(SCC(=O)Nc3cc(C(=O)O)ccc3Cl)nc3ccccc3c2=O)cc1", "Potency": "inconclusive [inhibitor, partial curve]"},
      {"compound": "COc1ccc(Cl)cc1NC(=O)CN(C)C1CCS(=O)(=O)C1", "note": "(stereo not given)", "Potency": "inconclusive [inhibitor, single point]"},
      {"compound": "COc1cc([N+](=O)[O-])ccc1N/C=C/C(=O)c1cccs1", "Potency": "inconclusive [inhibitor, single point]"},
      {"compound": "c1ccc(CNc2ncnc3[nH]ncc23)cc1", "Potency": "inconclusive [inhibitor, single point]"},
      {"compound": "O=C(NNc1ccc([N+](=O)[O-])cc1)C1CC1c1ccccc1", "note": "(stereo not given)", "Potency": "inconclusive [inhibitor, single point]"},
      {"compound": "NC(=S)N/N=C/c1ccc(-c2ccc(Cl)c(Cl)c2)o1", "Potency": "inconclusive [inhibitor, single point]"},
      {"compound": "O=C(NCC1CCCO1)C(c1ccncc1)N(Cc1cccs1)C(=O)CN1C(=O)c2ccccc2S1(=O)=O", "note": "(stereo not given)", "Potency": "inactive"},
      {"compound": "Cc1ccc(S(=O)(=O)N(C)CCCC(=O)Nc2ccc(C)cc2C)cc1", "Potency": "inconclusive [inhibitor, single point]"},
      {"compound": "CC1=CC(c2ccccc2)NC(=S)N1", "note": "(stereo not given)", "Potency": "inactive"},
      {"compound": "CCC1Oc2ccc(C)cc2N(CC(=O)NCCC2=CCCCC2)C1=O", "note": "(stereo not given)", "Potency": "inconclusive [inhibitor, partial curve]"},
      {"compound": "CC(SC1=NCCN1S(=O)(=O)c1ccc(F)cc1)c1ccccc1", "note": "(stereo not given)", "Potency": "inconclusive [inhibitor, single point]"},
      {"compound": "Cc1ccc(S(=O)(=O)N(Cc2ccc(Cl)cc2)c2ccccc2C(=O)NCc2cccnc2)cc1", "Potency": "inconclusive [inhibitor, single point]"},
      {"compound": "Cc1ccc(S(=O)(=O)N2CCOCC2)cc1NC(=O)COC(=O)c1cncc(Br)c1", "Potency": "inconclusive [inhibitor, single point]"},
      {"compound": "Nc1ccc(N=Nc2ccccc2)c2ccccc12", "Potency": "inactive"},
      {"compound": "O=Nc1ccc(O)c2ncccc12", "Potency": "inconclusive [inhibitor, single point]"},
      {"compound": "CCCc1nc2ccccc2c(C(=O)OCC(=O)NC2CC2)c1CC", "Potency": "inconclusive [inhibitor, partial curve]"},
      {"compound": "CC(=O)Nc1ccc(OC(=O)c2cc3cc(Br)cc(Br)c3oc2=O)cc1", "Potency": "inactive"},
      {"compound": "Nc1c2c(nc3ccc(Br)cc13)N(c1ccccc1)CC2", "Potency": "active: 7.08 µM"},
      {"compound": "CC1CCCCN1C(=O)/C(=C\\c1ccccc1)c1ccccc1", "note": "(stereo not given)", "Potency": "inactive"},
      {"compound": "CCCCCOc1ccc(/C=C/c2c([N+](=O)[O-])c(=O)n(C)c(=O)n2C)cc1", "Potency": "inactive"},
      {"compound": "Cc1ccc2c(Cl)cc(Cl)c(OCC(=O)Nc3cc(S(=O)(=O)N(C)C)ccc3C)c2n1", "Potency": "active: 2.51 µM"},
      {"compound": "COc1cccc(-c2nc(N3CCN(Cc4ccccc4)CC3)c3ccccc3n2)c1O", "Potency": "inconclusive [inhibitor, partial curve]"},
      {"compound": "N#CC1=C(N)Oc2c(c(=O)sc3ccccc23)C1c1cccnc1", "note": "(stereo not given)", "Potency": "inconclusive [inhibitor, single point]"},
      {"compound": "Cc1ccc(C(=O)NCC(=O)OCCOc2ccccc2Cl)cc1", "Potency": "inactive"},
      {"compound": "CC(=O)Nc1ccc(N2C(C(C)=O)=NN(c3ccccc3)C2c2cccs2)cc1", "note": "(stereo not given)", "Potency": "inactive"},
      {"compound": "COc1ccc(C)cc1N=Nc1ccc(O)c2ncccc12", "Potency": "inconclusive [inhibitor, single point]"},
      {"compound": "Cc1ccc(OCc2nnc(N)s2)cc1C", "Potency": "inactive"},
      {"compound": "Cc1cc(CNCc2cn(C)nc2-c2ccc(Oc3ccccc3)cc2)on1", "Potency": "inconclusive [inhibitor, partial curve]"},
      {"compound": "COc1ccccc1N1C(=O)C2CC=CC(C)C2C1=O", "note": "(stereo not given)", "Potency": "inactive"},
      {"compound": "COc1ccc(NC(=O)c2cc(S(=O)(=O)N(C)C)ccc2N2CCCC2)cc1Cl", "Potency": "inactive"},
      {"compound": "O=C(NCCCN1CCOCC1)c1ccc(Sc2ccccc2Cl)c([N+](=O)[O-])c1", "Potency": "inconclusive [inhibitor, partial curve, poor fit]"},
      {"compound": "CCn1c(O)c(/C=C2\\C=Nc3ccccc32)sc1=O", "Potency": "inconclusive [inhibitor, partial curve]"},
      {"compound": "COC(=O)C1=C(c2ccc(F)cc2OCc2ccccc2)C[C@@H]2CC[C@H]1N2C(=O)NC1Cc2ccccc2C1", "Potency": "active: 11.2 µM"},
      {"compound": "FC(F)(F)c1cccc(-n2cccc2/C=N/n2cnnc2)c1", "Potency": "inconclusive [inhibitor, single point]"},
      {"compound": "CCC(=NCCc1c(C)[nH]c2ccccc12)C1=C(O)CC(c2ccccc2)CC1=O", "note": "(stereo not given)", "Potency": "inconclusive [inhibitor, partial curve, poor fit]"},
      {"compound": "CCn1c(=O)cc(SCC(=O)N2CCN(c3ccccn3)CC2)c2ccccc21", "Potency": "inconclusive [inhibitor, single point]"},
      {"compound": "N#Cc1c(NC(=O)CSc2nnnn2C2CCCC2)sc2c1CCCC2", "Potency": "inconclusive [inhibitor, partial curve]"},
      {"compound": "COc1ccccc1-c1ccc(/C=N/O)o1", "Potency": "inconclusive [inhibitor, partial curve]"},
      {"compound": "O=C(c1ccc2nc(N3CCOCC3)sc2c1)N1CCN(c2ccc(Cl)cc2)CC1", "Potency": "inactive"},
      {"compound": "O=C(CCN1CCCCC1=O)NC1CCCc2c1cnn2-c1ccccc1F", "note": "(stereo not given)", "Potency": "inactive"},
      {"compound": "CCOC(=O)c1sc(NC(=O)Nc2cccc(Cl)c2)cc1C", "Potency": "inconclusive [inhibitor, single point]"},
      {"compound": "CNCCCC1Sc2ccccc2Oc2ccccc21", "note": "(stereo not given)", "Potency": "inconclusive [inhibitor, single point]"},
      {"compound": "O=C(C1CC1)N1CCc2cc(Br)c(S(=O)(=O)N3CCCCCC3)cc21", "Potency": "inconclusive [inhibitor, single point]"},
      {"compound": "COc1ccc(CC(=O)NCc2ccccc2)cc1", "Potency": "inconclusive [inhibitor, single point]"},
      {"compound": "O=c1c2ccccc2nc(-c2ccco2)n1-c1ccc(Br)cc1", "Potency": "inconclusive [inhibitor, single point]"},
      {"compound": "CCOC(=O)C1(Cc2ccc(Cl)cc2)CCN(C(=O)CCc2ccncc2)CC1", "Potency": "inconclusive [inhibitor, single point]"},
      {"compound": "COc1cccc(-c2nc(CS(=O)(=O)CC(=O)Nc3cc(OC)ccc3OC)c(C)o2)c1", "Potency": "inconclusive [inhibitor, partial curve]"},
      {"compound": "Cn1c(=O)c2c(ncn2CC(=O)OCCCC(=O)c2ccc(Br)cc2)n(C)c1=O", "Potency": "inconclusive [inhibitor, partial curve]"},
      {"compound": "O=C(NC(C(=O)N/N=C/c1ccccc1)c1n[nH]c(=O)c2ccccc12)c1ccccc1", "note": "(stereo not given)", "Potency": "inconclusive [inhibitor, partial curve]"},
      {"compound": "CCCCc1ccc(NC(=O)CSc2nc(=O)n(CCN(CC)CC)c3c2CCC3)cc1", "Potency": "inconclusive [inhibitor, single point]"},
      {"compound": "CC(C)(C)c1ccc(-n2ncc3c2CCCC3NC(=O)CCN2CCCO2)cc1", "note": "(stereo not given)", "Potency": "active: 12.6 µM"},
      {"compound": "COc1ccc(Cc2cc(NCc3ccccc3)c3ncn(C(C)C)c3c2)cc1", "Potency": "inconclusive [inhibitor, partial curve]"},
      {"compound": "COC(=O)c1cc(S(=O)(=O)NCC2CCN(Cc3cccc(Cl)c3)CC2)c[nH]1", "Potency": "inactive"},
      {"compound": "CSc1ccccc1NC(=O)c1ccoc1C", "Potency": "inconclusive [inhibitor, single point]"},
      {"compound": "Cc1nc2ccccc2c2oc(C(=O)N3CCc4ccccc4C3)cc12", "Potency": "inconclusive [inhibitor, single point]"},
      {"compound": "CC(=O)c1ccc(OCCCC(=O)NCc2nnc3ccccn23)cc1", "Potency": "inactive"},
      {"compound": "O=C(NCCn1c(C(F)(F)F)nc2cc(C(F)(F)F)ccc21)[C@H]1CCCN1c1nc(CN2CCCCC2)cs1", "Potency": "inactive"},
      {"compound": "COc1ccc(CC(=O)NC(C)C2COc3ccccc3O2)cc1OC", "note": "(stereo not given)", "Potency": "inactive"},
      {"compound": "CN(C)c1ccc(/C=C/C(=O)c2cccnc2)cc1", "Potency": "inactive"},
      {"compound": "Cc1onc(-c2ccccc2Cl)c1-c1nc(-c2ccccn2)no1", "Potency": "inactive"},
      {"compound": "Cc1ccc(C(=O)OCC(=O)N(C)c2c(N)n(Cc3ccccc3)c(=O)[nH]c2=O)s1", "Potency": "inactive"},
      {"compound": "Cc1ccnc(Nc2nc(-c3sc(C)nc3C)cs2)c1", "Potency": "active: 8.91 µM"},
      {"compound": "CC(=O)CCc1c(C)nc2ccc(C(=O)O)cc2c1Cl", "Potency": "inactive"},
      {"compound": "CC(C)(C)c1nnc(NS(=O)(=O)c2ccc(F)cc2)s1", "Potency": "inactive"},
      {"compound": "O=C(C1=COCCO1)N1CCN(c2nc3ccc([N+](=O)[O-])cc3s2)CC1", "Potency": "inconclusive [inhibitor, single point]"},
      {"compound": "CCCOc1ncnc2c1[nH]c1ccc(OC)cc12", "Potency": "inconclusive [inhibitor, partial curve]"},
      {"compound": "C/C=C/c1ccc(OCCOCCOc2cccc3cccnc23)c(OC)c1", "Potency": "inconclusive [inhibitor, partial curve]"},
      {"compound": "O=C(Oc1ccc(Br)cc1)c1cccc(S(=O)(=O)N2CCOCC2)c1", "Potency": "inconclusive [inhibitor, single point]"},
      {"compound": "COc1cccc(-c2cn(-c3cccc(C(F)(F)F)c3)c(=S)[nH]2)c1", "Potency": "inconclusive [inhibitor, partial curve]"},
      {"compound": "CSCCC(NC(=O)c1ccccc1)C(=O)O", "note": "(stereo not given)", "Potency": "inactive"},
      {"compound": "CC1(C)CC(NC(=O)c2ccccc2Cl)CC(C)(C)N1", "Potency": "inactive"},
      {"compound": "O=C(NCc1ccco1)c1cc2ccc(O)cc2oc1=O", "Potency": "inactive"},
      {"compound": "Clc1ccc2c(c1)C(c1ccccc1Cl)=NCc1nnc(Br)n1-2", "Potency": "inactive"},
      {"compound": "CCCn1c(=O)c(C(=O)N/N=C/c2ccccc2F)c(O)c2ccccc21", "Potency": "inactive"},
      {"compound": "Cc1cc(Nc2ncc(Cl)cc2Cl)n(-c2ccccc2)n1", "Potency": "inconclusive [inhibitor, partial curve, poor fit]"}
    ]}
  ]
}
